Broadly, the EC50 is the concentration at which the effect is half-maximal. A lower EC50 goes with an effect from little substance. For orientation: IC50 means the point on the concentration scale where inhibition reaches its midpoint.

Test [1] has as its target T1, human PD1 (human, UniProt Q15116 25-288).
T1 construct: whole, on cells; also called hPD1; CHO-hPD1
As to the kind of experiment: FACS on CHO/human PD-1 cells.

Test [2] has as its target T1, human PD1. As to the kind of experiment: FACS: blocking of human PD-L1-mFC (1 µg/mL) binding to CHO/human PD-1 cells. Background: Flow cytometry measures light scatter and fluorescence of single cells or particles in a stream.
The target in another test is T2, mouse IL10R1 (mouse, UniProt Q61727 17-575).
T2 construct: whole, on cells; also called CHO/mouse IL10R1
T2 sequence (looked up): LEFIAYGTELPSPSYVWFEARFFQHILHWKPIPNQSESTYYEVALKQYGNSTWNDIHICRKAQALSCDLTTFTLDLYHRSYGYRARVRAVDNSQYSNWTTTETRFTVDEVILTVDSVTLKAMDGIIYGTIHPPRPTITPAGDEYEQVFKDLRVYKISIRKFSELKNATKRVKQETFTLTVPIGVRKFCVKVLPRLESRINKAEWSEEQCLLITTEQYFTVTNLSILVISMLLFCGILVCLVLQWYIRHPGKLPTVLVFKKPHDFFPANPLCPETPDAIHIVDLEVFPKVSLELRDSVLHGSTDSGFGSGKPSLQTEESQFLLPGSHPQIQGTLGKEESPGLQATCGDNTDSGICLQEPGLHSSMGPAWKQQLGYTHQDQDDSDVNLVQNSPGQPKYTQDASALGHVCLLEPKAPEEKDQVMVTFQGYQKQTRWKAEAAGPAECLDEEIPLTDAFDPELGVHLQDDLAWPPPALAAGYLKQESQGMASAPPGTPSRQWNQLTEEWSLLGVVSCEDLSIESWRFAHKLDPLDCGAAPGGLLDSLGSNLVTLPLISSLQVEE
The test can be described thus: FACS on CHO/mouse IL10R1 cells.

The next test concerns the target T3, cyno PD-1 (cyno, UniProt B0LAJ3 25-288).
T3 construct: also called CHO/cyno PD-1; monkey PD-1
As to the kind of experiment: FACS on CHO/cyno PD-1 cells.

In a further test the target is T4, human IL10R1 (human, UniProt Q13651 22-578).
T4 construct: whole, on cells; also called CHO/human IL10R1
T4 sequence (looked up): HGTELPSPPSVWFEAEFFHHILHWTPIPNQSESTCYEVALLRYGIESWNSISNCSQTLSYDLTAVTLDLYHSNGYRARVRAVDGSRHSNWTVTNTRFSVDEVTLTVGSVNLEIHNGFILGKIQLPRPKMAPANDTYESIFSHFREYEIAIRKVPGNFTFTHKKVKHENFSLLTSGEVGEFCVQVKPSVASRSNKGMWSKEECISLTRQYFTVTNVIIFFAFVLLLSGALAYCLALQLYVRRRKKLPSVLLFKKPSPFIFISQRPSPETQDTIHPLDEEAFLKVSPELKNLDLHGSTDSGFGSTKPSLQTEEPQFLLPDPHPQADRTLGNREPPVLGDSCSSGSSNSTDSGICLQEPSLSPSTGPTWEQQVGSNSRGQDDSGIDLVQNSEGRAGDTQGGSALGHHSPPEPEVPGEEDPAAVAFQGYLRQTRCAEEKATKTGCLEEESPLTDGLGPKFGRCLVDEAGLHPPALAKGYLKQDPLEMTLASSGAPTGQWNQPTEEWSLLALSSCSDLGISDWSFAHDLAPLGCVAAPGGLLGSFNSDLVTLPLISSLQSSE
The test can be described thus: FACS on CHO/human IL10R1 cells.

Test [3] concerns the target T1, human PD1. The test can be described thus: FACS binding on CHO/human PD-1 cells (Example 12).
For the next test, the target named is T5, mouse PD-1 (mouse, UniProt Q02242 25-288).
T5 construct: whole, on cells; also called CHO/mouse PD-1
T5 sequence (looked up): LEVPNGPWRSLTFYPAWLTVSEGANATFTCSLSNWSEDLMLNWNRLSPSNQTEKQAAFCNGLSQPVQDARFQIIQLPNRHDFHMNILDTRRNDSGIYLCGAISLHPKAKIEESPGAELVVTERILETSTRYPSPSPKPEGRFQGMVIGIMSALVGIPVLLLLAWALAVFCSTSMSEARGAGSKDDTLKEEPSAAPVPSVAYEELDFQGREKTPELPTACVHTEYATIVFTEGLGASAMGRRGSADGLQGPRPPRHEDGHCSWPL
The test can be described thus: FACS on CHO/mouse PD-1 cells.

In the next test the target is T6, cyno IL10R1 (cyno, UniProt A0A2K5WJ66 22-576).
T6 construct: whole, on cells; also called CHO/cyno IL10R1; monkey IL10R1
T6 sequence: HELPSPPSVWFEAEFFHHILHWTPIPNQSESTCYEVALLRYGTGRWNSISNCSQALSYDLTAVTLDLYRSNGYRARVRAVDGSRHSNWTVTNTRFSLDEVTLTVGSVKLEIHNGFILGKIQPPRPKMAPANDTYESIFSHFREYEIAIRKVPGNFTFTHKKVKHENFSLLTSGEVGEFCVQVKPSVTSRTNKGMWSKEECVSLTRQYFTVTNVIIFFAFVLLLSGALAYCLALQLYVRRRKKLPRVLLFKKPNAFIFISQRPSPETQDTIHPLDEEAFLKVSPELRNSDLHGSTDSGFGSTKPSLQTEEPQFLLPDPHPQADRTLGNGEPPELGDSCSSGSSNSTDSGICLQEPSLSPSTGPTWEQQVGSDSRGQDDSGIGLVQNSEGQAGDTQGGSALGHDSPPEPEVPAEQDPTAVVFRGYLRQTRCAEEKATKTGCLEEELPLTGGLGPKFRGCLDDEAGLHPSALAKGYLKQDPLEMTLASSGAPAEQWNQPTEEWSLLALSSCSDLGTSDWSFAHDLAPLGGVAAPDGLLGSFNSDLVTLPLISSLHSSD
The test can be described thus: FACS on CHO/cyno IL10R1 cells.

Test [4] concerns the target T7, human IL10R (IL-10 receptor on the H_IL10 Reporter 293 Cell Line) (human, UniProt Q13651 22-578).
T7 sequence (looked up): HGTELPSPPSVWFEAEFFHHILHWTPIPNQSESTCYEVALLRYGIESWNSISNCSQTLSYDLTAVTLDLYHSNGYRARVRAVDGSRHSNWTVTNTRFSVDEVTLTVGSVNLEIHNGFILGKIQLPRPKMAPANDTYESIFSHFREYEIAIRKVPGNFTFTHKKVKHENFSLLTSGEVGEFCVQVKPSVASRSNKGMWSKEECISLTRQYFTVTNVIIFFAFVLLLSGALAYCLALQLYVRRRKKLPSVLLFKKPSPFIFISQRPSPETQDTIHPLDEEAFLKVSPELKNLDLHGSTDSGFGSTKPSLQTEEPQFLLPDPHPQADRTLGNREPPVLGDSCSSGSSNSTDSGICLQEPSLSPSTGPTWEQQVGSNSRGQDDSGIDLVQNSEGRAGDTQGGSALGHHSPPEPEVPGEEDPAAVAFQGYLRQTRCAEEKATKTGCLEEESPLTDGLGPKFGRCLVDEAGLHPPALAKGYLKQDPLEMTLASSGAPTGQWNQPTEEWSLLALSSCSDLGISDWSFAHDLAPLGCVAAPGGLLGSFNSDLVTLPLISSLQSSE
The test can be described thus: cell-based or functional assay.

Test [5] has as its target T1, human PD1. The test can be described thus: cell-based or functional assay.

T1 sequence (Q15116 25-288): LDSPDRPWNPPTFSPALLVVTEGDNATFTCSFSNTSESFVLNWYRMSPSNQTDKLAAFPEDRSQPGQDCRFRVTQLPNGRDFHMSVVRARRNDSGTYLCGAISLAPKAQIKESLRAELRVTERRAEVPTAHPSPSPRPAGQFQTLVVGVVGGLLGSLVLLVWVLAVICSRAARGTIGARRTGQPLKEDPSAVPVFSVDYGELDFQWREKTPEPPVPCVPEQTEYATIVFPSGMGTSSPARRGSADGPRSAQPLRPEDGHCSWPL
Sequence of cyno PD-1 (B0LAJ3 entry or part of it limits assumed, form in doubt): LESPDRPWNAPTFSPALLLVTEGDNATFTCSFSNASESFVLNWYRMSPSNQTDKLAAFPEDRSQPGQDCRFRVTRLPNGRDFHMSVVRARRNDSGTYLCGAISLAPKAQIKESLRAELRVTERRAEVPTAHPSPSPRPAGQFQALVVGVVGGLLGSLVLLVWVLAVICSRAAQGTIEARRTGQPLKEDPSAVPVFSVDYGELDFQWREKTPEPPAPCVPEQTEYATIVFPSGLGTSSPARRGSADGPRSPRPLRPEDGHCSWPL

B1: anti-PD1-IL10 fusion protein R1153 (other)
light: DIQMTQSPSSLSASVGDRVTITCRASKSVSTSGYSYMHWYQQKPGKAPKLLIYLAYHLESGVPSRFSGSGSGTDFTLTISSLQPEDFATYYCQHSWELPITFGQGTKLEIKRTVAAPSVFIFPPSDEQLKSGTASVVCLLNNFYPREAKVQWKVDNALQSGNSQESVTEQDSKDSTYSLSSTLTLSKADYEKHKVYACEVTHQGLSSPVTKSFNRGECGGGGSGGGGSGGGGSGGGGSGGQGTQSENSCTHFPGNLPNMLRDLRDAFSRVKTFFQMKDQLDNLLLKESLLEDFKGYLGCQALSEMIQFYLEEVMPQAENQDPDIKAHVNSLGENLKTLRLRLRRCHRFLPCENGGGSGGKSKAVEQVKNAFNKLQEKGIYKAMSEFDIFINYIEAYMTMKIRN
heavy: QVQLVQSGAEVKKPGASVKVSCKASGYTFTTYYMYWVRQAPGQGLEWMGGINPSNGGTNYAQKFQGRATMTVDTSTSTAYMELSSLRSEDTAVYYCTRRDSNYDGGFDYWGQGTTVTVSSASTKGPSVFPLAPSSKSTSGGTAALGCLVKDYFPEPVTVSWNSGALTSGVHTFPAVLQSSGLYSLSSVVTVPSSSLGTQTYICNVNHKPSNTKVDKRV[left out - human IgG1 Fc with changes]
notes: Antibody-cytokine fusion: modified monomeric IL10 linked to the C-terminus of the light chain of anti-PD1 antibody R1152; two identical first chains and two identical second chains; also called anti-hPD1-IL10M
With B1, the EC50 was found to be 6.04 nM in the test with human PD1 [1]; 2.32 nM with mouse IL10R1; 3.59 nM with cyno PD-1; 8.86 nM with human IL10R1; 7.3 nM in the test with human PD1 [3]; 4.65 nM with cyno IL10R1. The concentration for half-maximal inhibition (IC50) with human PD1 [2] was found to be 8.62 nM. In addition, the binding result in the test with mouse PD-1 is reported as “no binding”. In test [4], the “EC50 of luciferase reporter gene activity on H_IL10 Reporter 293 Cell Line, enriched (with CHO/human PD-1 cells)” value came to 1.81 nM. For the same molecule, in test [4], the “EC50 of luciferase reporter gene activity on H_IL10 Reporter 293 Cell Line, non-enriched” value was 9.24 nM. Further, the “EC50 of luciferase reporter gene activity (CHO-OKT3-hPD-L1 cells + Jurkat-NFAT-luc-hPD-1 cells)” value with human PD1 [5] was determined as 5.07 nM.

Values taken from patent EP4786499A1 (Guangdong Fapon Biopharma Inc., dated 2026).
